# In PubChem BioAssay (NCI):
#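 Tested at 5 concentrations; 48 h exposure; 96-well plates; endpoints linearly interpolated, else capped at highest concentration. GI50 is the concentration that inhibits growth by half. TGI marks complete inhibition of growth.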
# Test system: NCI-H322M lung
# Test: growth of human tumour cells (NCI), 48 h
SMILES,GI50,TGI
COc1cc(-c2nc3sc4c(c3c(=O)[nH]2)CCCCCC4)cc(OC)c1OC,4.56 µM,> 33.2 µM
COc1cccc2c1C(=O)c1c(O)c3c(c(O)c1C2=O)C[C@@](O)(C(=O)CO)C[C@@H]3OC1C[C@H](N)[C@H](O)[C@H](C)O1 (stereo not given in full),0.286 µM,4.28 µM
CCN(CCCl)CCCNc1c2ccccc2nc2ccc(OC)cc12,320 µM,–
c1ccc2c(c1)[nH]c1cnc3c4cccnc4[nH]c3c12,–,30.7 µM
Cc1ccc(C(C2C(=O)N(C)C(=O)N(C)C2=O)C(F)(F)C(=O)N(C)C)cc1 (stereo not given),–,> 100 µM
CCc1ccc2[nH]c(O)c(-c3[nH]c4ccccc4c3N=O)c2c1,–,19.3 µM
O=[N+]([O-])c1ccc(N=Nc2c(O)c(S(=O)(=O)O)cc3cc(S(=O)(=O)O)ccc23)cc1,–,> 100 µM
CCCCCCCCCCCCCCCCCCNc1ccn(C2OC(COP(=O)(O)OCC3OC(n4cc(C)c(=O)[nH]c4=O)CC3N=[N+]=[N-])C(O)C2O)c(=O)n1 (stereo not given),–,71.4 µM
COc1cc(/C=C2\N=C(c3ccccc3)N(c3nc4c(OC)ccc(OC)c4s3)C2=O)cc(OC)c1OC,–,> 100 µM
C/C(=N\N=C(/[Se])N1CC2CCC(CC2)C1)c1ccccn1,–,2.92 µM
O=C(N/N=C/c1cc(Cl)cc(Cl)c1[O-])c1ccccc1O.O=C(N/N=C/c1cc(Cl)cc(Cl)c1[O-])c1ccccc1O.[Ni+2],0.646 µM,7.22 µM
CCOC(=O)/C=C/C(C(=O)/C=C/c1ccc(O)c(OC)c1)=C(O)\C=C\c1ccc(O)c(OC)c1,8.42 µM,> 100 µM
O=C1NC2(CCCCC2)C2CCCCCC12 (stereo not given),–,> 100 µM
O=c1[nH]nc(-c2ccccc2)n1/N=C/c1c(O)ccc2ccccc12,–,> 100 µM
COc1ccc(N=N/C(=N/NC(=O)c2ccccc2)c2ccc(N(CCC#N)CCC#N)cc2C)cc1,–,> 100 µM
COc1cc(/C=C2\CCC(CN(C)C)C2=O)ccc1OC(=O)c1ccccc1 (stereo not given),–,32.6 µM
NC(N)=NNC(=O)CCCCCCCC(=O)NN=C(N)N,–,> 100 µM
O=C(O)c1cc(N=Cc2ccccc2O)cc(C(=O)O)c1,–,> 100 µM
COc1cc2c[n+](C)c3c4ccccc4ccc3c2cc1OC (tested in a mixture with another compound),–,41 µM
N#C[S-].[Nd+3].c1ccc(-c2ccccn2)nc1.c1ccc(-c2ccccn2)nc1.c1ccc(-c2ccccn2)nc1,3.82 µM,> 100 µM
CCN1c2ccccc2C(Cl)(c2ccc(N(C)C)cc2)c2ccccc21,77.9 µM,> 100 µM
Cc1ccc(N2CCc3c(C)c(C#N)c4nc5ccccc5n4c32)cc1,–,> 100 µM
Cc1ccc2c(c1)NC(=O)CC(c1ccccc1)=N2,–,> 100 µM
CSc1c(C#N)c(=O)[nH]c2n[nH]c(C)c12,–,> 100 µM

SMILES,GI50,TGI
COc1ccccc1/C=N\N=C(N/N=C/c1ccccc1OC)N/N=C/c1ccccc1OC,2.62 µM,> 100 µM
O=C1c2c(n(Cc3ccccc3)c(=O)n2Cc2ccccc2)C(=O)N1Cc1ccccc1,–,> 100 µM
COC(=O)C1(F)C(=O)NC(=O)NC1O (stereo not given),–,> 100 µM
N#Cc1c(N2CCCC2)ncn(Cc2ccccc2)c1=O,–,> 100 µM
O=C1C(Br)=CC2(C=C1Br)CCNC1=C2C(=O)c2cccnc2C1=O,–,34.3 µM
C=C(CC[C@@H](C(=O)O)[C@H]1[C@H](O)C[C@@]2(C)C3=CC[C@@H](C(=C)C)[C@](C)(CCC(=O)O)C3=CC[C@]12C)C(C)C,–,32.5 µM
O=S1(=O)c2ccccc2C(=NO)c2ccccc21,–,> 100 µM
Cc1ccc(-c2cc(C3=CC(=O)C=CC3=O)n(-c3ccc(S(N)(=O)=O)cc3)n2)cc1,13.2 µM,> 100 µM
C=CCC(N[C@H](CO)c1ccccc1)c1cn(C(=O)OCC)c2ccccc12 (stereo not given in full),13.8 µM,28.6 µM
O=C(Nc1ccccc1O)c1ccc(Oc2cccc(C(=O)Nc3ccccc3O)c2)cc1,3.15 µM,13.8 µM
N#CCc1ncc(-c2ccc(C(F)(F)F)cc2)c(NC2CCCCCC2)n1,> 10 µM,> 10 µM
C1CCC(OC2CSC2)OC1 (stereo not given),–,> 100 µM
Cc1cc(S(=O)(=O)O)c(NC(=O)C(=O)C2C=CCS2(=O)=O)cc1Cl (stereo not given),–,> 100 µM
Cc1cc(-c2nc3ccccc3s2)ccc1NC(=O)[C@H](C)N,–,21.4 µM
COc1ccc2c(c1)n([O-])c(C#N)c(N1CCN(c3ccc([N+](=O)[O-])cc3)CC1)[n+]2=O,–,> 100 µM
COc1ccc(C(=O)c2cc3c(OC)c(OC)c(OC)cc3[nH]2)cc1,> 100 µM,> 100 µM
c1ccc2c(c1)nc(NC1CCCC1)c1[nH]c(C3CCCC3)nc12,–,> 100 µM
C(=C\c1ccccc1)/C=N/c1nc2cc3sc(/N=C/C=C/c4ccccc4)nc3cc2s1,–,> 100 µM
C=CCNC(=O)NC1=CSC2=NC(=O)C3(NN12)c1ccccc1-c1ccccc13,–,> 10 µM
CCOC(=O)/C=C(\C(=O)OCC)n1ccc(N)nc1=O,–,> 100 µM
S=C1Nc2ccc(Cl)cc2C2(c3ccccc3)N3CCN=C3NN12 (stereo not given),> 100 µM,> 100 µM
O=c1cc(N2CCCC2)[nH]c(=O)n1-c1cccc(C(F)(F)F)c1,–,> 100 µM
c1ccc(-n2nnnc2-c2cccc3ccccc23)cc1,9.64 µM,> 100 µM
O=C(OCC1CO1)c1cccs1 (stereo not given),–,> 100 µM

SMILES,GI50,TGI
COc1ccc(-c2c(N)n(-c3cccc(C(=O)O)c3)c(=O)c3cc([N+](=O)[O-])ccc23)cc1,–,> 100 µM
C#Cc1c(C(N)=O)ncn1C1OC(COP(=O)(OCc2ccc([N+](=O)[O-])o2)N(C)CCCCCl)C(O)C1O (stereo not given),28.9 µM,> 100 µM
Cc1cccc(NC(=O)C(=O)C(C(=O)c2ccccc2F)C2OC(=O)c3ccccc32)c1Cl (stereo not given),–,79.3 µM
CC#CC1/C(=C\C(=O)OC)CCCC1O (stereo not given),–,> 100 µM
CC(CO)C1C[C@H](O)[C@@]2(C)CC(=O)C=C(CO)[C@@H]2C1 (stereo not given in full),–,> 100 µM
O=C1Nc2cc([N+](=O)[O-])ccc2NC1/C(=N\Nc1ccccc1)C(O)c1cccc([N+](=O)[O-])c1 (stereo not given),–,> 100 µM
COc1ccc2c(c1)C(=O)/C(=C/c1ncc([N+](=O)[O-])n1C)O2,2.9 µM,13.5 µM
O=Nc1ccc2ccccc2c1O,20.3 µM,39.2 µM
COc1ccc2nc3cc(Cl)ccc3c(NCCCNCCC(C)O)c2c1 (stereo not given),0.236 µM,1.44 µM
Cc1ccc2c(O)c(O)cc(NC(C)CCCN)c2n1 (stereo not given),13.5 µM,> 100 µM
CCOC(=O)/C=C(/C(=O)OCC)n1cc(C)c(=O)n(Cc2cn(COCCOC(C)=O)nn2)c1=O,–,> 100 µM
C=CCSC1=N/C(=C\c2ccccc2)C(=O)N1CC=C,–,> 100 µM
CN1CCN(Cc2ccc(NC(=O)c3ccc(C#Cc4c(N)ncc5ccc(F)cc45)cc3)cc2C(F)(F)F)CC1,0.867 µM,1.72 µM
O=C(O)c1ccc(N/C=C2\C(=O)c3ccccc3OC2O)cc1O (stereo not given),59.9 µg/mL,> 150 µg/mL
CSC1=C(C#N)C(=O)N(c2ccc(C)cc2)C(=S)C1C#N (stereo not given),–,> 100 µM
C=C1C(=O)O[C@H]2[C@H]1CC/C(COC(=O)NCCc1c[nH]c3ccc(OC)cc13)=C\CC[C@@]1(C)O[C@@H]21,11.6 µM,23.7 µM
CCCCCCCCCCCCSC(=N)N,19.4 µM,34.2 µM
CCN(c1ccc(Br)cc1)c1c(Br)c(=O)nc2ccccn12,–,> 100 µM
CCOC(=O)C1SC(=Nc2ccc(Cl)c(Cl)c2)N=C1C (stereo not given),–,> 100 µM
N#CC1=C(N)NC(=O)NC12Nc1ccccc1S2 (stereo not given),14.3 µM,37 µM
Oc1ccc(SCc2cc(O)c(O)c(O)c2)cc1,–,> 100 µM
COc1ccc(-c2ccc(-c3ccc(-c4ccc(C(=N)N)cc4)s3)s2)cc1OC,5.49 µM,21.2 µM
